The record followed here is article PMC4336329 (PLoS ONE, 2015).

The whole screen tested about 310,000 compounds, of which about 2,200 (0.71%) showed an effect of 50% or more. The effect is printed as a negative number. The list shows a part of the results.

human ether-à-go-go-related gene (hERG) potassium channel, sequence (Q12809 whole entry, looked up): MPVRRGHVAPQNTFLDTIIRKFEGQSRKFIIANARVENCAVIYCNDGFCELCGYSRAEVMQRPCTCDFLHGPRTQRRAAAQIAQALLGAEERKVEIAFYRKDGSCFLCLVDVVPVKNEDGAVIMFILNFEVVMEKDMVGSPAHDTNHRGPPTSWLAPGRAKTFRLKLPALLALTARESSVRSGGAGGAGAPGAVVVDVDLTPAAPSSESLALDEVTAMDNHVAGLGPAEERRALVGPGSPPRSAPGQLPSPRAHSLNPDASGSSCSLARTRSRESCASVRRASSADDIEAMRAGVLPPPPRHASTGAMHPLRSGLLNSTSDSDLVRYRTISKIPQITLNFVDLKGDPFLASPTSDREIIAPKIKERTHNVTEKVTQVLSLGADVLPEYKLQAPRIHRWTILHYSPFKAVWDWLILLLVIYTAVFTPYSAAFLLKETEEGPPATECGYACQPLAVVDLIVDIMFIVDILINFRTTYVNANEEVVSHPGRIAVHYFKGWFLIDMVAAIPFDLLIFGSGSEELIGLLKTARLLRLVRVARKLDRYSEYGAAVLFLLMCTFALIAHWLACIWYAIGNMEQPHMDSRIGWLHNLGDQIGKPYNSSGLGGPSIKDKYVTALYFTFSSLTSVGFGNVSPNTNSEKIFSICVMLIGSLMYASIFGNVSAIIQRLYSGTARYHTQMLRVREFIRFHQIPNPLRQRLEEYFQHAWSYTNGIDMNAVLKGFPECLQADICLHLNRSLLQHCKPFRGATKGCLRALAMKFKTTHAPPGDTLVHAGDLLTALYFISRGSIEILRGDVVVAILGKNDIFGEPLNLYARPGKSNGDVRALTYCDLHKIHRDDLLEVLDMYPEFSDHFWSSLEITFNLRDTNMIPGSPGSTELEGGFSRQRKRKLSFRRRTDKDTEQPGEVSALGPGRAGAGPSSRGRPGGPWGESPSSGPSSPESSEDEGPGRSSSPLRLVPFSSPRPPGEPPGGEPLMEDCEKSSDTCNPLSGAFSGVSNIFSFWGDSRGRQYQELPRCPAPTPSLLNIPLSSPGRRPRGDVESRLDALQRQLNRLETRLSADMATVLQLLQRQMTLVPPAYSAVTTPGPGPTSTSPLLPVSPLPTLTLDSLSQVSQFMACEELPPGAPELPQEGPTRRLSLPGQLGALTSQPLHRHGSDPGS

This experiment concerns the target human ether-à-go-go-related gene (hERG) potassium channel (human, UniProt Q12809). The experiment in a line: primary screen, population patch clamp on CHO cells stably expressing hERG.
Take `O=c1c2ccccc2nc(-c2ccco2)n1Cc1ccccc1`: the “hERG current change (%, negative = inhibition) at 1uM” value was -5.48%.

Regarding `Cl.O.O=C(CCN1CCOCC1)Nc1ccc2c(c1)N(C(=O)CN1CCOCC1)c1ccccc1CC2`, the “hERG current change (%, negative = inhibition) at 1uM” value amounted to 7.81%.

Consider `Cc1cccc(CCN(CC(=O)NC(C)(C)C)C(=O)c2csnn2)c1`, for which the “hERG current change (%, negative = inhibition) at 1uM” value came to 12.1%.

Take `O=C1NC(c2ccccc2)=C(c2ccc3ccccc3n2)C(c2ccncc2)N1` (stereo not drawn): the “hERG current change (%, negative = inhibition) at 1uM” value is listed as 1.5%.

Consider `COc1ccc(C/C(N)=N/OC(=O)COc2ccccc2C)cc1`, for which the “hERG current change (%, negative = inhibition) at 1uM” value is listed as 8.46%.

Consider `COc1cccc(NC(=O)c2ccc(S(=O)(=O)NCc3cccnc3)cc2)c1`, for which the “hERG current change (%, negative = inhibition) at 1uM” value is recorded as 6.33%.

On to `COc1ccc(NCC(=O)N/N=C/c2cc([N+](=O)[O-])ccc2N2CCCC2)cc1`, for which the “hERG current change (%, negative = inhibition) at 1uM” value was found to be 4.18%.

Turning to `CCC(C)(C)n1nnnc1CN(Cc1cccs1)Cc1cc2cc(OC)ccc2[nH]c1=O`, the “hERG current change (%, negative = inhibition) at 1uM” value is recorded as 13.6%.

Consider `O=C(CN1C(=O)CSC1=O)N1CCCC(Nc2ccc(F)cc2)C1` (stereo not drawn), for which the “hERG current change (%, negative = inhibition) at 1uM” value amounted to 11.5%.

For `c1ccc(-c2cnc(CSc3ncnc4sccc34)o2)cc1`, the “hERG current change (%, negative = inhibition) at 1uM” value is given as 10.6%.

On to `N#CCN(CC#N)C(=O)C1c2ccccc2Oc2ccccc21`, for which the “hERG current change (%, negative = inhibition) at 1uM” value was determined as 17.4%.

Consider `CCOc1ccc(Br)cc1S(=O)(=O)NCc1ccc(S(N)(=O)=O)cc1`, for which the “hERG current change (%, negative = inhibition) at 1uM” value was 4.06%.

On to `COc1ccccc1NS(=O)(=O)c1cc(NC(=S)Nc2cc(C)cc(C)c2)ccc1Cl`, for which the “hERG current change (%, negative = inhibition) at 1uM” value is on record as 12%.

On to `COc1ccc2c(ccn2S(=O)(=O)c2ccccc2)c1`, for which the “hERG current change (%, negative = inhibition) at 1uM” value was 18.4%.

In the case of `CCOc1ccc(C(=O)NCc2ccncc2)cc1OCC`, the “hERG current change (%, negative = inhibition) at 1uM” value came to 6.31%.

With `CC(C)(CO)CN1CCC(n2nccc2NC(=O)C2CCCC2)CC1`, the “hERG current change (%, negative = inhibition) at 1uM” value was 10.2%.

`O=C1OCc2ccc(NC(=O)C3CC3)cc21`: the “hERG current change (%, negative = inhibition) at 1uM” value was 5.11%.

`CSc1nc2ccc(NS(=O)(=O)c3ccc([N+](=O)[O-])cc3)cc2s1`: the “hERG current change (%, negative = inhibition) at 1uM” value came out at 12.6%.

Take `COC(=O)c1cc(S(=O)(=O)NC2CCCCC2)cn1C`: the “hERG current change (%, negative = inhibition) at 1uM” value stood at 14.5%.

Turning to `Cc1cccc(NC2=C(Cl)C(=O)OC2OC(=O)c2ccco2)c1` (stereo not drawn), the “hERG current change (%, negative = inhibition) at 1uM” value is given as 14.7%.

With `Cc1cc(F)ccc1NCC(=O)Nc1ccccc1Br`, the “hERG current change (%, negative = inhibition) at 1uM” value is 16.4%.

As for `COc1cccc(C2N(c3cccc(Cl)c3)C(=O)C3CCCN32)c1` (stereo not drawn), the “hERG current change (%, negative = inhibition) at 1uM” value turned out to be 4.76%.

Turning to `Cc1cccc(N(CC(=O)NC2CCCC2)C(=O)CS(=O)CC(=O)Nc2ccc3c(c2)OCO3)c1` (stereo not drawn), the “hERG current change (%, negative = inhibition) at 1uM” value is given as -0.439%.

In the case of `COc1ccccc1C(=O)Nc1ccnn1C1CCN(Cc2cnn(C)c2C)CC1`, the “hERG current change (%, negative = inhibition) at 1uM” value is -28.8%.
